Out of some 410,000 compounds screened, about 260 (0.063%) were called active. This list was built around the results that the source calls inconclusive (neither active nor inactive); the mix of calls is not that of the screen. Calls come from the whole dose curve; as a rule, active = well fitted activation curve with a large enough effect; inconclusive = small, poorly fitted or top-dose-only effect; inactive = no such curve, though single readings can be large or run the other way. Potencies of inconclusive entries are left out as doubtful fits.
Assay: qHTS for compounds that reverse cellular toxicity of Amyloid beta (A-beta) peptide in yeast: Primary Screen; note: nearly all actives have a fitted effect of over 55% in size
Settings: yeast expressing A-beta42, growth rescue, OD600, 48 h; growth rescue: at 46.1 µM (top of the series), 0% DMSO, 100% iron-clioquinol control
Method in brief: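 Yeast growth medium received pinned compounds, then yeast cells expressing toxic A-beta were added; plates incubated at 30 C for 48 hr. Growth read as absorbance at 600 nm, normalized to DMSO and equimolar FeCl3 plus clioquinol controls.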
Potency is the fitted concentration of half-maximal effect; tags give direction and shape of the fitted curve.

**Q.** With `COCCCNC(=S)N1CCN(c2nc(-c3ccccc3)cs2)CC1` as the compound, how does the Potency read?
**A.** Its Potency is inconclusive [activator, single point].

**Q.** With `COc1ccccc1NC(=S)NCCc1ccc(F)cc1` as the compound, how does the Potency read?
**A.** The Potency was inconclusive [activator, single point].

**Q.** For `COc1ccccc1NC(=S)NC1CCCCC1`, which Potency is on record?
**A.** The Potency was inconclusive [activator, partial curve, poor fit].

**Q.** Which Potency does the source give for `Cc1cc(=O)n2c(-c3ccccc3C)n[nH]c2n1` here?
**A.** The Potency was inconclusive [activator, partial curve, poor fit].

**Q.** Which “growth rescue” value does the source give for `CC(=O)N1CCOc2cc(S(=O)(=O)NCc3ccc(C)cc3)c(C)cc21` here?
**A.** The value was inactive: -35.7%.

**Q.** For `CN(C(=O)COc1ccc(Oc2ccccc2)cc1)C1CCS(=O)(=O)C1` (stereo not drawn), which Potency is on record?
**A.** The Potency was inconclusive [activator, single point].

**Q.** For `CCc1cccc2c(/C=N/NC(=O)c3cccc(S(=O)(=O)Nc4ccccc4Cl)c3)c[nH]c12`, which Potency is on record?
**A.** Its Potency is inconclusive [activator, partial curve, poor fit].

**Q.** With `CC1=CC(C)(C)NC(=S)N1c1ccccc1C` as the compound, how does the Potency read?
**A.** Its Potency is inconclusive [activator, partial curve, poor fit].

**Q.** Which Potency does the source give for `O=C1C(Cc2ccccc2)Nc2ncnc(N3CCOCC3)c2N1Cc1ccc(Br)cc1` (stereo not drawn) here?
**A.** Its Potency is inconclusive [activator, single point].

**Q.** For `CC(C)OCCCNC(=O)CCCn1c(=O)[nH]c2ccsc2c1=O`, which “growth rescue” value is on record?
**A.** The value was inactive: -9.19%.

**Q.** Which Potency does the source give for `C=CCn1cnc2scc(-c3ccccc3)c2c1=O` here?
**A.** Its Potency is inconclusive [activator, partial curve, poor fit].

**Q.** Which Potency does the source give for `Cc1nn2c(C)c(C(=O)N3CCN(c4ccccc4)CC3)cnc2c1-c1ccccc1` here?
**A.** The Potency was inconclusive [activator, partial curve].

**Q.** With `Clc1ccccc1Cc1noc(CN2CCN3CCCC3C2)n1` (stereo not drawn) as the compound, how does the “growth rescue” value read?
**A.** Its value is inactive: -9.66%.

**Q.** Which Potency does the source give for `COc1ccc(C(=O)NC(C)c2nccs2)cc1OC1CCN(C(C)C)CC1` (stereo not drawn) here?
**A.** The Potency was inconclusive [activator, single point].

**Q.** With `CC1=CCC2C(=O)N(CCc3c[nH]c4ccccc34)C(=O)C2C1` (stereo not drawn) as the compound, how does the Potency read?
**A.** Its Potency is inconclusive [activator, partial curve, poor fit].

**Q.** Which Potency does the source give for `CC(C)CNC(C(=O)Nc1ccc([N+](=O)[O-])cc1Br)c1ccccc1` (stereo not drawn) here?
**A.** Its Potency is inconclusive [activator, single point].

**Q.** Which “growth rescue” value does the source give for `Oc1c(C(c2ccccc2Cl)N2CCC(O)CC2)sc2nc(-c3ccco3)nn12` (stereo not drawn) here?
**A.** The value was inactive: -13.7%.

**Q.** With `O=c1c2c3nc4ccccc4nc3n(/N=C/c3ccccn3)c2ncn1-c1ccccc1` as the compound, how does the Potency read?
**A.** The Potency was inconclusive [activator, single point].

From PubChem BioAssay AID1347071 (National Center for Advancing Translational Sciences (NCATS), 2019)
